Screen size: about 360,000 compounds; about 7,500 (2.1%) were called active. The inconclusive results got no clear call from the source; some entries with a clear call stand among them for comparison. The call rests on the fitted dose curve; in most records, active means well fitted cell-killing curve with a large enough effect; inconclusive means small, poorly fitted or top-dose-only effect, or effect the other way, or another doubt; inactive means no such curve, though single readings can be large or run the other way. Potencies of inconclusive entries are left out as doubtful fits.
assay: qHTS for induction of synthetic lethality in tumor cells producing 2HG: qHTS for the HT-1080-IDH1KD cell line; conditions: HT-1080 IDH1 knockdown viability, ATP luminescence, 48 h; activity, negative = toxicity: at 46.1 µM (top of the series) unless noted;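 on activity, negative = toxicity: 0% = DMSO wells and -100% = cell-free medium wells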
How it was run: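 Viability of IDH1-knockdown HT-1080 fibrosarcoma cells was assessed by CellTiter-Glo after 48 h at 37 °C with titrated compound; concentration-effect curves were classified by fit quality and response size.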
Potency means the concentration at half of the fitted maximal effect; tags describe the fitted curve by direction and shape.

Row | Structure (SMILES) | Potency | activity, negative = toxicity
1 | CCOC(=O)[C@]12CCCC=C1N(CCC1=CCCCC1)C(=O)[C@H](CC(=O)NCCc1ccccc1OC)C2 | inconclusive [cytotoxic, single point] | 
2 | N#CCCN1CCN(Cc2cc(-c3ccccc3)ccc2O)CC1 | inconclusive [rising, single point] | 
3 | O=C1CCC(=O)N(O)CCCCCNC(=O)CCC(=O)N(O)CCCCCNC(=O)CCC(=O)N(O)CCCCCN1 | inconclusive [cytotoxic, single point] | 
4 | O=C(NCc1ccco1)C1CC(c2ccccc2O)=NO1 (centres undefined) | inconclusive [cytotoxic, single point] | 
5 | Cc1ccccc1-c1nnc(SCC(=O)Nc2cccnc2Cl)o1 | active: 23.1 µM | 
6 | O=C(CN1C(=O)/C(=C\c2ccccc2Cl)Oc2ccccc21)NCc1cccnc1 | inconclusive [cytotoxic, single point] | 
7 | O=C1CCC(OCc2ccccc2)CCN1CC[C@@H](Sc1ccccc1)c1ccccc1 (some centres undefined) | inconclusive [cytotoxic, single point] | 
8 | COc1cc2ccccc2cc1C(=O)N/N=C/c1cccnc1 | inconclusive [cytotoxic, single point] | 
9 | Cc1ccc(/C(O)=C2\C(=O)C(=O)N(C)C2c2ccc(Br)cc2)cc1 (centres undefined) |  | inactive: 6.73%
10 | O=C(NCc1ccncc1)c1ccccc1Nc1ccc(SC(F)F)cc1 | inconclusive [cytotoxic, partial curve] | 
11 | Cc1cc2c(OCC(O)CNCc3ccco3)cccc2[nH]1 (centres undefined) | inconclusive [cytotoxic, single point] | 
12 | O=C(Nc1ccc(Cl)cc1)NC1CCCc2ccccc21 (centres undefined) | inconclusive [cytotoxic, partial curve] | 
13 | CC(C)(C)c1ccc(NC(=O)COC(=O)C2CCCC2)cc1 |  | inactive: -0.187%
14 | Cc1ccccc1OCC(=O)Nc1ccc(N2CCN(C)CC2)c(Cl)c1 | inconclusive [cytotoxic, single point] | 
15 | CC1(NC(=S)Nc2ccc3ccccc3c2)CCS(=O)(=O)C1 (centres undefined) |  | inactive: -13.7%
16 | Cc1noc(C)c1-c1ccc(C(=O)Nc2ccccc2)c2occc12 | inconclusive [cytotoxic, single point] | 
17 | COc1ccc(NS(=O)(=O)c2cc(C)ccc2NC(=O)c2cc(C)oc2C)cc1 | active: 0.92 µM | 
18 | CN(N=Cc1cccc2cccnc12)c1ccc([N+](=O)[O-])cc1[N+](=O)[O-] |  | inactive: 9.01%
19 | Cc1cc(-c2cn3ccccc3n2)c(C)n1-c1ccccc1 | inconclusive [cytotoxic, single point] | 

Reference: PubChem BioAssay AID686971 (National Center for Advancing Translational Sciences (NCATS), 2013)
